# In patent US6541490B1, “Bipyridine manganese complexes” (Eukarion, Inc., priority 1998, dated 2003):
# At least one structure is not confirmed: it was looked up by name or label, or the drawing left a doubt.
# Tests used:
# Type in all cases: biochemical
# [1] = Catalase (CAT) assay: removal of hydrogen peroxide, HRP/ABTS read-out; conditions: amount of hydrogen peroxide removed per minute, per mmol of compound; 0.05M Tris HCl pH 7.4, 25° C., 60 mins
# Text: This method measures catalase activity as the ability to remove hydrogen peroxide from solution in the absence of hydrogen donors over one hour. After this time any remaining peroxide was removed by introduction to the mixture of high concentrations of horseradish peroxidase and the hydrogen donor 2,2′-azino-di-[3-ethyl-benzothiazoline-(6)-sulphonic acid (ABTS). This rapid reaction produces peroxide-concentration-dependant product with a maximal absorbance at 405 nm.
# (§1) The assays for compound antioxidant activity were carried out in 96-well microtitre plates using a DIAS modular assay robot instrument (Dynatech Ltd.) Compounds were solublised in DMF at 10 mM. DMF concentrations in the assay never exceeded 1%, were tolerated and were controlled for in assay plates.
# Hydrogen peroxide (Sigma H1009) 100 mM was incubated with various concentrations of compound in 0.05M Tris HCI pH 7.4 at 25° C. for 60 mins. In addition, a standard range of concentrations of hydrogen peroxide were placed on every microtitre plate. After incubation 0.1 volumes of a mixture of horseradish peroxidase (Sigma P-6140) 1 U/ml and ABTS (Sigma A-1888) 3 mM was added. The resultant reaction was allowed to go to completion by incubation at 25° C. for 60 mins. Plates were then read for absorbance at 405 nm. A standard curve for absorbance against known hydrogen peroxide concentration was constructed. Absorbance data for wells containing compound were interpolated against this curve using the software tools Excel (Microsoft Corp.) and Xlfit (ID Business Solutions). This analysis gives the amount of hydrogen peroxide removed per minute, per mmol of compound.
# The catalase assay procedure described above provides certain advantages over previously described assays. Prior art assays of catalase activity involve direct measurement either of the amount of oxygen produced (generally using an oxygen electrode) or of the amount of hydrogen peroxide remaining (by UV absorption which generally involves use of a quartz vessel). The assay described above instead employs an indirect measurement of hydrogen peroxide concentration. The addition of peroxidase and ABTS after an appropriate time period results in immediate oxidation by POD of the ABTS using the remaining hydrogen peroxide. The oxidation of ABTS results in a colour change which can be measured. This allows the assay to be performed in a format which is simpler and which also provides for increased compound throughput relative to previous techniques. For example, the assay can be run in a multi-well plate format (such as a 96-well plate format).
# [2] = Superoxide dismutase (SOD) assay: xanthene oxidase/hypoxanthene, XTT reduction; conditions: SOD activity from IC50 of XTT reduction (one International Unit), normalised; 0.05M Tris/HCl pH 7.4, 25° C.
# Experimental: This method is adapted from what has become the standard method for the measurement of SOD activity (McCord J. M., Fridovich, I., J. Biol. Chem. 244, 6049-6055, 1969). Briefly, a steady-state production of superoxide anion was maintained by the action of xanthene oxidase (XO) on hypoxanthene (HX) at physiological pH. Presence of the anion was measured by the reduction of XTT (3′-{1-(phenylamino)-carbonyl]-3,4-tetrazolium]-bis(4-methoxy-6-nitro)benzsulphonic acid to a water-soluble product with an absorbance maximum at ˜470 nm. Hypoxanthene concentrations were titrated so as to give a steady-state rate of XTT reduction of 0.025 Optical Density Units (OD) per minute at 25° C.
# as §1
# Xanthene oxidase (Sigma X1875) 0.01 U/ml and XTT (Sigma X4251), 0.5 mM and hypoxanthene (Sigma H9377), typically at […], were incubated in the presence of various doses of compounds at 25° C. in 0.05M Tris/HCI pH 7.4. Rates of XTT reduction were measured over 5 minutes at 490 nm. Dose-response curves were constructed for inhibition by the compound of control rates of XTT reduction. IC50 concentrations were derived using a four-parameter logistic model using the software tools Excel (Microsoft Corp.) and Xlfit (ID Business Solutions). This concentration is equivalent to one International Unit of SOD activity. These values were normalised to units of U/mmol compound.
# [3] = Peroxidase (POD) assay: hydrogen peroxide removal with hydrogen donor ABTS; conditions: ABTS 3 mM, 0.05M Tris HCl pH 7.4, 25° C., 2 minutes, interpolated against horseradish peroxidase standard curve
# Experimental: This method measures the ability of the compounds to remove hydrogen peroxide in the presence of the hydrogen donor 2,2′-azino-di-[3-ethyl-benzothiazoline-(6)-sulphonic acid (ABTS) (Galati, H., J. Clin. Chem. Clin. Biochem. (1979) 17, 1-7).
# as §1
# ABTS (Sigma A-1888) 3 mM was incubated with various concentrations of compound in 0.05M Tris HCI pH 7.4 at 25° C. A range of standard concentrations of horseradish peroxidase (Sigma P-6140) were included on each microtitre plate. Hydrogen peroxide (Sigma H1009) 100 mM was added and the plate incubated at 25° C. for 2 minutes. Absorbance at 405 nm was measured and the rates of ABTS […] calculated. A standard curve was constructed using data from wells containing known concentrations of peroxidase. Data for wells containing compound were interpolated against this curve using the software tools Excel (Microsoft Corp.) and Xlfit (ID Business Solutions). Estimations of peroxidase activity were given as International Units of peroxidase activity/mmol compound.
smiles,measurement,setting,value
"COc1cccc2c1[O][Mn]([O]C(C)=O)[O]c1ccccc1-c1cccc(n1)-c1cccc-2n1 [Example 26, 6-(2-Hydroxyphenyl)-6′-(2-hydroxy-3-methoxyphenyl)-2,2′-bipyridine-manganese(III)acetate]",CAT,[1],0.277
same,SOD,[2],137.5 U/mmol compound
same,POD,[3],1247939 International Units of peroxidase activity/mmol compound
